Measured values: PubChem BioAssay AID540267 (National Center for Advancing Translational Sciences (NCATS), 2011)
The campaign covered roughly 340,000 compounds. About 530 (0.16%) were called active. The shares of active, inactive and inconclusive entries below differ from those in the screen. Cut-off read from the data, not from the text of the source: active = activity change below about -80%; inconclusive = between about -30% and that limit; inactive = weaker than that.

Assay: Small Molecules that selectively kill Giardia lamblia: qHTS;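 note: parasites exposed to compound for two days anaerobically before the ATP read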
Settings: Giardia lamblia trophozoite viability; at 7.66 µM; stronger effect = lower value
In short: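 ATP-content bioluminescence gauges trophozoite survival. Cells (100/well) receive compound and incubate anaerobically for 48 hrs at 37 deg C; detection reagent follows for 15-30 min at room temperature.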
% is set by controls: 0 for no effect and ±100 for the full control effect.

SMILES | activity change
Cc1ccc(C(=O)Nc2ccccc2C(=O)O)cc1S(=O)(=O)Nc1ccc(Br)cc1 | inactive: 9.97%
Clc1cccc(OCCCN2CCCC2)c1Cl | inactive: 17.2%
CC1CC1C(=O)OCC(=O)Nc1cccc(Br)c1 (configuration not stated) | inconclusive: -32.6% [inhibitor]
Cc1ccc(-c2nc(N/N=C/c3ccccc3[N+](=O)[O-])c3ccccc3n2)cc1 | inconclusive: -54.4% [inhibitor]
O=C(Nc1ccc(Cl)cn1)C1COc2ccccc2O1 (configuration not stated) | inactive: 8.94%
Cc1nn(CC(=O)Nc2cccc(S(N)(=O)=O)c2)c(C)c1[N+](=O)[O-] | inconclusive: -34.1% [inhibitor]
O=C(Nc1ccc(N2CCN(C(=O)c3ccccc3)CC2)cc1)c1ccc([N+](=O)[O-])o1 | active: -99.9%
Cc1ccc(C)c(C(=O)COC(=O)c2n[nH]c3ccccc23)c1 | inconclusive: -31.8% [inhibitor]
COCCN1Cc2cccc(C(=O)NCc3ccc4c(c3)OCO4)c2C1=O | inconclusive: -32.7% [inhibitor]
Cc1csc(/C(=N\O)c2csc(C)n2)n1 | inactive: -5.01%
CC(=O)Nc1ccc(C(=O)N/N=C/C2CC3C=CC2C3)cc1 (configuration not stated) | inconclusive: -38.9% [inhibitor]
CCN(C(=O)Cn1c(=O)oc2ccccc21)c1ccc(C)c(C)c1 | inconclusive: -31.2% [inhibitor]
Nc1cc(=O)nc(SCC(=O)N2CCN(c3ccccc3)CC2)n1-c1ccc(F)cc1 | inactive: 5.97%
Cc1ccc(NC(=O)c2cccc3c2C(=O)N(C2CCCCC2)C3)c(C)c1 | inconclusive: -37.1% [inhibitor]
COc1ccc2nc(C)c3cc(C)oc3c2c1 | inactive: -1.72%
O=C(Nc1nc2ccccc2s1)c1ccc(F)cc1 | inconclusive: -35.9% [inhibitor]
O=C(CC(=O)OCc1ccccc1)OCc1ccccc1 | inconclusive: -30.4% [inhibitor]
Cc1csc(NS(=O)(=O)c2cccc([N+](=O)[O-])c2)n1 | inconclusive: -36.4% [inhibitor]
N#Cc1nc(-c2ccc(OCc3ccccc3)cc2)oc1N1CCC(C(N)=O)CC1 | inconclusive: -47.4% [inhibitor]
COc1ccccc1C(=O)COC(=O)CNC(=O)c1ccc(Br)o1 | inactive: 7.12%
COc1cc(C(=O)Nc2nc3ccc(S(C)(=O)=O)cc3s2)cc(OC)c1C | inconclusive: -31% [inhibitor]
CCCCC(=O)NC(c1ccccc1Cl)c1c(O)ccc2ccccc12 (configuration not stated) | inactive: 3.41%
COCCCNc1oc(-c2cccs2)nc1S(=O)(=O)c1ccc(C)cc1 | inactive: -3.73%
CS(=O)(=O)N(CC(=O)NCCSC1CCCCC1)c1ccccc1 | inactive: -1.64%
CCCn1c(SCC(=O)N2CCCCC2)nnc1C(C)C | inactive: 0.436%
O=C(Nc1ccc(CN2CCCCC2)cc1)Nc1ccccc1Cl | inactive: 5.92%

SMILES | activity change
CCOC(=O)CSc1nc2ccccc2n1C(=O)OCC | inconclusive: -31.9% [inhibitor]
COc1ccc(CNC(=O)CSc2ccsc2[N+](=O)[O-])cc1 | inconclusive: -71.2% [inhibitor]
COc1ccc(-c2noc(CCC(=O)NC3CCCC3)n2)cc1 | inconclusive: -32.7% [inhibitor]
COCCOC(=O)C1=C(C)Nc2ncnn2C1c1ccco1 (configuration not stated) | inconclusive: -33.2% [inhibitor]
COc1ccc(C)cc1NC(=O)CCNS(=O)(=O)c1cccc2nonc12 | inactive: -1.62%
O=C(NC1CCN(S(=O)(=O)c2ccccc2F)CC1)c1cccnc1 | inconclusive: -35.9% [inhibitor]
O=C(Nc1ccc2ccccc2c1)c1ccccc1O | inconclusive: -30% [inhibitor]
CCOC(=O)N=Nc1c2ccccc2c2nc3no[nH]c3nc12 | active: -96.4%
Cc1c(Cl)c([N+](=O)[O-])nn1CCCC(=O)Nc1cccnc1 | inconclusive: -38.3% [inhibitor]
CC(C)OC(=O)c1cccc(C(=O)Nc2cccc(NC(=O)c3cccc(C(=O)OC(C)C)n3)n2)n1 | inactive: -4.43%
Cc1ccc(CNc2ccc(O)cc2)cc1 | inconclusive: -31.3% [inhibitor]
CCCCCCN1C=CC(=C2C(=O)c3ccccc3C2=O)C=C1 | inconclusive: -66.3% [inhibitor]
Oc1ccccc1C1CC(c2cccs2)=NC(c2ccc(Cl)cc2)N1 (configuration not stated) | inactive: -7.74%
COC(=O)C1=C(C)N(Cc2ccccc2)C(=O)N[C@H]1c1ccc(Br)cc1 | inconclusive: -39.2% [inhibitor]
O=C(Nc1nc2c(s1)CCCC2)c1cccs1 | inconclusive: -40.1% [inhibitor]
O=C(Nc1ccc2nc3ccccc3nc2c1)c1ccccc1 | inconclusive: -37.7% [inhibitor]
Cn1cc(C(=O)N2CCN(c3ccccc3)CC2)c(=O)c2cc(S(=O)(=O)N3CCOCC3)ccc21 | inconclusive: -32.8% [inhibitor]
CS(=O)(=O)NCCCCNc1ccc(C(F)(F)F)cc1[N+](=O)[O-] | inconclusive: -30.3% [inhibitor]
CN1CCN(C(=O)CCN2C(=O)/C(=C\c3ccc(Cl)cc3)SC2=S)CC1 | inconclusive: -40% [inhibitor]
CCC(=O)N1CCN(c2ccccc2NC(=O)c2ccc([N+](=O)[O-])o2)CC1 | active: -90.5%
Cc1ccc2[nH]c(-c3ccccc3)cc(=O)c2c1 | inconclusive: -35.2% [inhibitor]
CCOC(=O)C1=CN(CC)S(=O)(=O)NC1c1ccc(C(F)(F)F)cc1 (configuration not stated) | inconclusive: -31.2% [inhibitor]
Cc1ccn(-c2ccc(NC(=O)c3cccs3)cc2)n1 | inconclusive: -50.3% [inhibitor]
CC(=O)c1c(COC(=O)c2cccc(C)c2)nc2ccccc2[n+]1[O-] | inconclusive: -39.7% [inhibitor]
COc1cccc(CNc2ccc([N+](=O)[O-])c(NCC(=O)O)n2)c1 | inactive: 26.8%
COc1ccc(NC(=O)CCC(=O)N/N=C/c2cccnc2)cc1 | inconclusive: -33.5% [inhibitor]
